We go through 167 variants from the RNAGym collection of RNA variant scans (doi:10.7554/elife.90254).

Sequences and labels used below:
B1: LINE1-full (parent)
chain: UACGUAGGUGGUUUUCCCCUGAUAGUGCUAAGGGGGCCUGGAAGUUUGGACUGGGCAGAGCUCAACACAGCGUGGCAAAGUGGCUGUGGCUAGACUGCCUCUCUGGAUUCCUCGUCACUCAGCAGGGCAUCUCUGAGAGAAAUGCC

Read counts are not given, so values of variants with three or more changes are uncertain.

The variants in the series derive from B1. Nature of the series: self-cleavage, relative activity (ratio to wild type); higher = more cleavage; in vitro, sequencing; the parent is a self-cleaving ribozyme.
Turning to C56A U96G A140G, the self-cleavage came out at 0.04.

Take U85C U100C U112C: the self-cleavage was found to be 0.

For the variant G10A U12G A59G U85C U134C, the self-cleavage was determined as 1.08.

In the case of G36A A57G U62C U96C A121C, the self-cleavage worked out at 0.

As for A6G A79G U134A, the self-cleavage turned out to be 0.54.

For C19U A24G U112G, the self-cleavage came out at 0.8.

U20G A43G U45C U52C U132C U134A A140G: the self-cleavage turned out to be 0.

C17U A69G U87C: the self-cleavage worked out at 0.07.

Take U45A U46C A79G U102A A107U A124U: the self-cleavage worked out at 1.41.

On to A2G C128U U132C, for which the self-cleavage was determined as 0.48.

U52A A57G A124U U132C: the self-cleavage was 0.69.

Turning to U1C A65C U134C A138G A142G, the self-cleavage is 0.19.

With G86A U102C A142G, the self-cleavage came out at 0.06.

For A43G A121U C128A A136G, the self-cleavage is 0.59.

Consider U14G A22G U87A, for which the self-cleavage worked out at 0.88.

Consider U91A U130C A141G, for which the self-cleavage amounted to 0.18.

With G25A A77U U87C U112C A117C, the self-cleavage was found to be 0.

Turning to G36A G40A U62A U91C, the self-cleavage is 0.02.

Regarding U39C U130A U143C, the self-cleavage amounted to 1.25.

Consider U9C G11U A31G G36C G58U U108C, for which the self-cleavage is 0.13.

Regarding U12C U46C C56U A94G A141G, the self-cleavage is 0.04.

U109C U130C A141G: the self-cleavage was found to be 1.31.

A107G U108A A141G: the self-cleavage was found to be 2.33.

Regarding U15C A24G A140U, the self-cleavage amounted to 1.04.

Consider G11U U15C A59G U87C, for which the self-cleavage was 0.34.

For the variant U15A C95U A138G, the self-cleavage is 0.27.

On to A22U A59G G72A G122C, for which the self-cleavage is 0.08.

As to G72A A79G A124G, the self-cleavage was 0.58.

As for U104C A140U A141G, the self-cleavage came to 1.37.

For U39A U85C A136G A138G, the self-cleavage amounted to 0.37.

For U23A G82A A117U, the self-cleavage amounted to 1.92.

On to U62C A67U U73A U81C C84U, for which the self-cleavage was found to be 0.08.

With A50U U52A U81C, the self-cleavage was 0.73.

For A2G A121U G122A A138G, the self-cleavage is 1.05.

Take U23C U26G A69U: the self-cleavage is 0.39.

Take U1C U13C A57G U91C A107G: the self-cleavage was found to be 0.

Consider U26C A50G A92G, for which the self-cleavage turned out to be 0.

In the case of A107G A129G A141G, the self-cleavage was determined as 0.3.

For A59G U62C U73A U85C A138G, the self-cleavage stood at 0.

As to U5A A22G U62C, the self-cleavage amounted to 0.

For the variant U14C G33A U73C A121G, the self-cleavage was 1.06.

As for A64C U81C C103A A138G, the self-cleavage was determined as 0.21.

For the variant A65U U73C U102A G125A, the self-cleavage turned out to be 0.29.

For the variant U13C A30G U100C, the self-cleavage came out at 1.13.

Turning to U9C U96C C145U, the self-cleavage amounted to 0.

On to U20C A67U U73C A141G, for which the self-cleavage stood at 0.2.

For the variant G54A U130C A138G, the self-cleavage stood at 1.93.

Consider U20A U29C U87C, for which the self-cleavage came to 0.57.

For the variant U12G U26A A140G, the self-cleavage was 0.93.

With G4A G125A A138G U143C, the self-cleavage came to 0.79.

As to G40A U112C U134C, the self-cleavage was determined as 1.34.

As for U23G A50U G74A, the self-cleavage is 0.49.

Turning to A24U C63U A78U A141G, the self-cleavage was 0.41.

For A2G A57G C76U U100C U143A, the self-cleavage came to 1.02.

Turning to G11A U81C A117G A124U, the self-cleavage came out at 1.62.

As for U9A A79C U87C U134A, the self-cleavage came out at 0.48.

As to U29C A30G U115C, the self-cleavage is 1.84.

For G40A A129G U130A A138G, the self-cleavage is 1.51.

Turning to U12C A69U U112C U119A, the self-cleavage amounted to 0.15.

With A64G A77G U100A, the self-cleavage is 0.24.

Consider U9A A79G G114U U119C A140G, for which the self-cleavage is 0.68.

As for U45G U81A U134G, the self-cleavage was determined as 1.83.

For U13A A42G U62C U96C G105A, the self-cleavage stood at 0.

Turning to A64U U87A U96C, the self-cleavage was 0.03.

As for U13C U47A U81C U112C, the self-cleavage worked out at 0.55.

Take U20C U46A U73A A129U: the self-cleavage is 0.92.

Turning to U52C A64U U81A U85C U100C U134C, the self-cleavage came out at 0.54.

As for U85C A121G U134G, the self-cleavage was 0.45.

Regarding U29C G72C A141G, the self-cleavage is 1.36.

Consider A42G G53A U119A, for which the self-cleavage was 1.45.

On to C16A U26A G70U, for which the self-cleavage was 0.14.

For U14A A30G G35A, the self-cleavage was 0.67.

For the variant A129U A138G U143C, the self-cleavage was found to be 1.33.

On to U20C U52C G72A, for which the self-cleavage is 2.12.

On to U26C U115A A142U, for which the self-cleavage is 1.5.

As to U12C A24G A77G C84U U85C U134A, the self-cleavage is 0.22.

With C51U A77G G135U A142G, the self-cleavage is 1.39.

Take U26A A43G A59G C101A: the self-cleavage was 0.1.

For the variant U46A U47A G82A, the self-cleavage came out at 1.52.

On to U134A A138U C146U, for which the self-cleavage worked out at 1.83.

On to U29G U47G A79G, for which the self-cleavage was 0.

For the variant U13C A22U U29C U87A U109C U112C A136G A140G, the self-cleavage stood at 0.

A2G A30U G32A U39C A67G: the self-cleavage amounted to 0.

Turning to A50G U87A A142G, the self-cleavage came to 0.

U47A A78G A79G: the self-cleavage stood at 1.1.

As for U47A U73G U109C, the self-cleavage worked out at 1.06.

As to U5C A67U A141G, the self-cleavage is 0.24.

Consider A24U U119A A121G U143C, for which the self-cleavage worked out at 0.77.

For U81A G89A U100C U130C U132A, the self-cleavage turned out to be 0.01.

As to U15A G34A A78G, the self-cleavage is 0.84.

Take A59G U62C A64G: the self-cleavage came to 0.51.

In the case of G33A U73A C76U A107G A117G U119C, the self-cleavage worked out at 1.16.

On to U9C U85A U102C A121U, for which the self-cleavage was determined as 0.18.

Turning to U12C C68U A124U, the self-cleavage was 0.16.

As to U15A A57U U85C, the self-cleavage was 0.21.

In the case of U26C U39A U81A U91A, the self-cleavage was 0.78.

On to U14A A69G A94G, for which the self-cleavage stood at 0.

Consider G72U U96A U102C, for which the self-cleavage stood at 0.11.

Turning to U14C U85C U96A C113A, the self-cleavage came to 0.09.

On to U1C U14C U108C A124G, for which the self-cleavage was determined as 1.72.

With U12C U23C A69G, the self-cleavage was determined as 0.57.

Turning to U26C U108C C113U, the self-cleavage was 0.97.

Consider U12C U39A U45G A124U, for which the self-cleavage was 1.64.

Consider U73A A94G U96C, for which the self-cleavage came out at 0.12.

Take U14C U87A C120A: the self-cleavage came out at 0.07.

As for U9C A31G G105C G106U C111U, the self-cleavage came out at 1.5.

Regarding A124U U132A U134A, the self-cleavage is 1.91.

Turning to C120U A129G A142G, the self-cleavage was determined as 2.04.

Consider C37U U62C U87A A107G C116U, for which the self-cleavage worked out at 0.

Turning to A6U A31G G35C U115A, the self-cleavage was found to be 1.46.

C17U U39C A65G: the self-cleavage worked out at 0.

As for A59G A136G A138G, the self-cleavage came out at 0.05.

Turning to U85A U109C A138G, the self-cleavage worked out at 0.06.

Turning to G4A C19A A141G, the self-cleavage is 0.83.

With G44A A67U A79G C84U U85A U108C, the self-cleavage is 0.02.

Turning to C61A U108C U143C, the self-cleavage stood at 0.07.

Regarding U52A U102C A136U, the self-cleavage turned out to be 1.18.

For the variant U14C A59C A136G, the self-cleavage was determined as 0.71.

As for U15C U26C A50G A92G, the self-cleavage was found to be 0.

For the variant U9C U14C U46C G114A, the self-cleavage came out at 0.92.

Take A42G A121G A140C: the self-cleavage stood at 2.95.

Take U5C A22C U52A C56A U62C G74U: the self-cleavage was found to be 0.11.

As to U26C G70A C101U, the self-cleavage was found to be 0.08.

With A69U A121U A140G, the self-cleavage amounted to 0.04.

With G40A A117U A141G G144A, the self-cleavage was determined as 0.59.

As to A92U A117G C128U A140U, the self-cleavage was 0.73.

On to G35A C61U C131U, for which the self-cleavage worked out at 0.01.

Turning to A43U A107G A141G, the self-cleavage turned out to be 0.67.

As for A22U U47C A57G C128U, the self-cleavage turned out to be 0.73.

On to U26C U39C A64U A92G, for which the self-cleavage worked out at 0.13.

Regarding G8A A42G U96C U109A A124U, the self-cleavage was determined as 0.1.

For the variant G4A U9G U23C A92U, the self-cleavage amounted to 0.35.

With U12C G58A A129U, the self-cleavage is 0.12.

Turning to A42G A67U A124G A142G, the self-cleavage amounted to 0.18.

As for A43G U52A U73A A141G, the self-cleavage was found to be 1.55.

For the variant U9C A79U U85A U102C, the self-cleavage came to 0.4.

U12C G53A U85C U100A A107G: the self-cleavage is 0.

For U13C U20C A141G, the self-cleavage was determined as 1.29.

On to C84A A117U A138G, for which the self-cleavage is 0.06.

Take U14A G41C C51U: the self-cleavage turned out to be 1.91.

Consider A59C U104G A140G, for which the self-cleavage was determined as 0.14.

Turning to A94U A124G A142G, the self-cleavage is 0.13.

With U13C U52C A69U, the self-cleavage stood at 0.31.

Regarding A22G G33A U112A, the self-cleavage stood at 1.31.

For the variant A22G U109C C113A, the self-cleavage worked out at 1.37.

For U20C G32A A50G A57G, the self-cleavage came out at 0.

Take A77G U85C U134A: the self-cleavage came out at 0.11.

In the case of U12C A79G A141G, the self-cleavage was 0.93.

Regarding U12G U45C A64U U85A A117G C145U, the self-cleavage was determined as 0.46.

U13A U14C A78G U132C: the self-cleavage worked out at 0.8.

Consider U87C G114A A121G, for which the self-cleavage came to 0.15.

As for A78U U115C A121G U143A, the self-cleavage was found to be 0.

With A22G U112C U115A A138G, the self-cleavage came out at 1.22.

For the variant A30U G36A G114A, the self-cleavage was determined as 1.44.

In the case of A2G C19U A92G U130C U143C C145U, the self-cleavage worked out at 0.19.

Regarding C37A U46C A79G A92G U109C G139A, the self-cleavage came out at 0.

As to G21A U73A U96C U115A A138G, the self-cleavage was determined as 0.11.

With U29C U47C C66U, the self-cleavage was 0.04.

Regarding A77G G86C A107G G144A, the self-cleavage turned out to be 0.15.

For U12G G74A U108C U119C, the self-cleavage worked out at 2.83.

Turning to A79G A107G A129U, the self-cleavage is 0.16.

Consider U13C A78G U81G A121G, for which the self-cleavage was 0.37.

As to U119A U134C A138G, the self-cleavage turned out to be 1.55.

With G8A U13C A59G G114U U115C, the self-cleavage stood at 0.18.

Consider U39A A43G A92G, for which the self-cleavage was determined as 0.04.

On to C3U G49U U134A A142G, for which the self-cleavage was 0.27.

Consider U15C A59G U104A, for which the self-cleavage is 0.11.
